# Results published in PubChem BioAssay AID493208 (National Center for Advancing Translational Sciences (NCATS), 2011).
# Hit rate of the full screen: of about 44,000 compounds, about 340 (0.77%) were called active. Not shown: some 5% with an inconclusive outcome. Calls follow the shape of the dose curve; as a rule, active = well fitted inhibition curve with a large enough effect; inconclusive = small, poorly fitted or top-dose-only effect; inactive = flat fitted curve, though single readings scatter. This is one part of the list.
# Test: Acumen qHTS Assay for Inhibitors of the mTORC1 Signaling Pathway in MEF (Tsc2-/-, p53-/-) Cells: Sytravon; also: nearly all actives have a fitted effect of over 50% in size;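 as to activity change, negative = inhibition: plate controls were DMSO for no effect and rapamycin for full effect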
# Details: phospho-rpS6 immunofluorescence/PI, 24 h; series mostly up to 38.3 µM; activity change, negative = inhibition: at the top concentration
# Summary of the method: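 Immunofluorescence of rpS6 phosphorylation in Tsc2-/-, p53-/- MEFs after 24 h compound exposure, normalized to propidium iodide signal. Activity is expressed as % positive cells, thresholded with 7.5 nM rapamycin.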
# Potency is read from the fitted curve at half-maximal effect.
Structure (SMILES),"activity change, negative = inhibition",Potency
O=C(O)c1cc(-c2ccc(C(F)(F)F)cc2)nc2n[nH]c(-c3ccccc3)c12,inactive: 0%,
CC(=O)c1ccc(NC(=O)Cn2cc3c(n2)CCCC3)cc1,inactive: 0.772%,
CCc1ccc(S(=O)(=O)c2cn(CC)c3cc(N4CCOCC4)c(F)cc3c2=O)cc1,inactive: -5.63%,
CCOc1ccc(CN2CCN(c3ncnc4sc5c(c34)CC(C)CC5)CC2)cc1 (stereo unspecified),inactive: -8.31%,
COc1ccccc1C(=O)Nc1nnc(S(=O)(=O)N(C)c2ccc(Cl)cc2)s1,inactive: -11.4%,
CCOc1ccc2c(c1)c(=O)c(S(=O)(=O)c1ccccc1)cn2CC(=O)Nc1ccccc1OC,inactive: 2.97%,
Cc1ccc(CNC(=O)C2CCN(S(=O)(=O)c3ccc4c(c3)CCCN4C(=O)C3CCC3)CC2)cc1,inactive: -0.552%,
O=C(NCCSc1c(-c2ccccc2)[nH]c2ccccc12)c1ccc(S(=O)(=O)N2CCOCC2)cc1,inactive: -16.8%,
Cc1nc(-c2ccccc2)sc1CCNS(=O)(=O)c1ccccc1,inactive: -0.701%,
COc1ccc(NC(=O)CN2C(=O)CSc3ccc(S(=O)(=O)N4CCCC4)cc32)cc1OC,inactive: 2.66%,
CCOc1ccc(S(=O)(=O)N(CC(=O)NCCc2ccc(OC)c(OC)c2)c2ccccc2)cc1,inactive: -17.6%,
Cc1ccccc1Cn1c(CN2CCC(C(=O)NCCN(C)C)CC2)cc2ccccc21,,active: 7.36 µM
Cc1ccccc1NC(=O)CN1C(=O)C(C)(C)c2ccccc21,inactive: -2.42%,
COc1cccc(NC(=O)c2cc3c(=O)n(C)c4ccccc4c3n2C)c1,inactive: -5.96%,
CCCCNC(=O)c1cnn2c(C)c(Cc3c(F)cccc3Cl)c(C)nc12,inactive: -15.7%,
COc1ccc(OC)c(CCNC(=O)c2c(C)oc3ncn(C)c(=O)c23)c1,inactive: -5.9%,
O=C(CN1C(=O)COc2ccc(S(=O)(=O)N3CCCCCC3)cc21)N1CCN(c2ccc(Cl)cc2)CC1,inactive: -10.7%,
CCOC(=O)c1ccc(NC(=O)CC(C)n2nc(C)cc2C)cc1 (stereo unspecified),inactive: -11.1%,
COc1cc(NC(=O)Cc2noc3ccccc23)cc(OC)c1OC,inactive: -0.488%,
O=c1[nH]c(C2CCCN(S(=O)(=O)c3ccccc3)C2)nc2c1nnn2Cc1ccccc1Br (stereo unspecified),inactive: -1.67%,
CCOC(=O)c1cccc(NC(=O)Nc2c(C)n(C)n(-c3ccccc3)c2=O)c1,inactive: 2.78%,

Structure (SMILES),"activity change, negative = inhibition",Potency
Cc1cccc(-n2ncc3c(NNC(=O)c4ccccc4Cl)ncnc32)c1,inactive: 2.4%,
COc1ccc(-c2ccc(=O)n(CC(=O)Nc3cc(OC)ccc3OC)n2)cc1,inactive: -1.55%,
Cc1ccc(C)c(Nc2nn3c(=O)c4ccc(C(=O)NCc5ccccc5)cc4nc3s2)c1,inactive: -1.23%,
COc1ccc(CNC(=O)c2cc(-c3ccc(Br)s3)nc3ccccc23)cc1,inactive: -6.82%,
COc1cccc(C(=O)Nc2nnc(S(=O)(=O)N3CCCc4ccccc43)s2)c1,inactive: 8.71%,
Cc1cccc(C)c1NC(=O)Cn1cc(C(=O)C2CC2)c2ccccc21,inactive: -5.66%,
Cc1nn(CCC(=O)Nc2cccc(C#N)c2)c(C)c1S(=O)(=O)N1CCCCC1,inactive: 14.6%,
CCCCN(CC)CCCNC(=O)c1cn(C)c(=O)c2c1c1ccccc1n2C,inactive: -1.91%,
CCc1cnc2c(c1SCc1cc(OC)cc(OC)c1)c(=O)n(C)c(=O)n2C,inactive: 0.477%,
COc1ccc(OC)c(S(=O)(=O)NCCS(=O)(=O)N2CCN(c3ccccc3F)CC2)c1,inactive: 0%,
CCS(=O)(=O)NCCc1csc2nc(-c3ccc(OC)cc3)nn12,inactive: -8.92%,
Cc1ccc(C)c(CN2C(=O)c3ccccc3S(=O)c3ccc(C(=O)N4CCCCC4)cc32)c1 (stereo unspecified),inactive: -4.49%,
COc1ccccc1/C=C/C(=O)Nc1nc2n(n1)C(c1ccc(F)cc1)C=C(c1ccccc1)N2 (stereo unspecified),inactive: -1.81%,
Cc1ccc(OCCn2c(C3CC(=O)N(Cc4ccc(F)cc4)C3)nc3ccccc32)c(C)c1 (stereo unspecified),inactive: -5.23%,
CSc1ncc(C(=O)NCc2cccc(C)c2)c(-c2ccccc2)n1,inactive: 1.62%,
C=CCc1ccccc1OCCSc1nc(-c2ccccc2F)nc2cc(=O)[nH]n12,inactive: -0.243%,
O=S(=O)(NCC(c1ccccc1)N1CCc2ccccc21)c1ccc(Cl)cc1 (stereo unspecified),inactive: 0.221%,
COc1ccc(C(=O)c2cn(Cc3ccccc3OC)c3cc4c(cc3c2=O)OCO4)cc1,inactive: 2.47%,
COC(=O)c1ccc(NC(=O)CC2C(=O)N(c3ccccc3)C(=O)N2Cc2cccs2)cc1 (stereo unspecified),inactive: -7.92%,
CCN(CC)C(=O)c1sc2c(c1C)c(=O)n(-c1ccc(OC)cc1OC)c(=O)n2CC(=O)Nc1ccccc1,inactive: 0.382%,
Cc1cccc(N2CCN(c3nc4ccccc4c4nnc(C)n34)CC2)c1C,inactive: -7.2%,

Structure (SMILES),"activity change, negative = inhibition",Potency
COc1ccc(CNC(=O)Cn2cccc2C(=O)c2ccccc2C)cc1,inactive: -3.16%,
Cc1cccc(NC(=O)c2c(NC(=O)c3ccccc3)sc3c2CCC3)c1,inactive: 3%,
Cc1cc(C)cc(-n2ccnc2SCC(=O)Nc2ccccc2F)c1,inactive: -3.54%,
COc1ccc2c(c1)c(CC(=O)Nc1c(C)cccc1C)c(C)n2C(=O)c1ccc(Cl)cc1,inactive: -4.62%,
CSc1ccc(CCNC(=O)c2ccc(-n3c(C)cc4c3CCC(C)C4)cc2)cc1 (stereo unspecified),inactive: -1.5%,
CCOc1ccccc1NC(=O)Cn1c(=O)n(-c2ccc(C)cc2)c(=O)c2c1cnn2C,inactive: -13.5%,
Cc1cc(C)cc(NC(=O)CCn2cnc3ccccc3c2=O)c1,inactive: -16.9%,
CCc1cccc(NC(=O)CC(c2ccc(OC)cc2)N2Cc3ccccc3C2=O)c1 (stereo unspecified),inactive: -19.5%,
CC(C)c1ccc(C2NC(=O)c3c(sc4c3CCN(C)C4)N2)cc1 (stereo unspecified),inactive: 0.657%,
Cc1ccc(-n2nnnc2SCC(=O)NCCc2ccccc2)cc1C,inactive: -2.73%,
COc1ccc(NC(=O)c2ccc(NC(=O)CCS(=O)(=O)c3cccs3)cc2)cc1Cl,inactive: 0.283%,
CCOc1ccc(N(CC(=O)OC)S(=O)(=O)c2ccc3c(c2)n(C)c(=O)c(=O)n3C)cc1,inactive: -0.818%,
CCC(C)NC(=O)Cn1c(=O)n(-c2ccc(Cl)cc2)c(=O)c2c3c(sc21)CCCC3 (stereo unspecified),inactive: 7.38%,
Cc1ccc(C)c(N2CCN(C(=O)c3c(C)oc4nc(C)nc(N5CCOCC5)c34)CC2)c1,inactive: 5.94%,
CCCc1nnc(SCc2cc(=O)c3c(C)cc(C)cc3[nH]2)n1C,inactive: 2.33%,
CCc1nnc(NC(=O)CSc2nccn2Cc2ccc(Cl)cc2)s1,inactive: -0.654%,
Cc1ccc(OCCCn2c(-c3ccc(Cl)cc3)nc3ccccc3c2=O)cc1C,inactive: 1.86%,
O=C(Nc1ccc(F)cc1F)C1CCN(C(=O)c2cnn(-c3ccccc3)c2-n2cccc2)CC1,inactive: 0.568%,
O=C(NCC(c1ccc2c(c1)OCO2)N1CCN(c2ccccc2)CC1)c1ccc(F)c(F)c1 (stereo unspecified),inactive: 0%,
